Assay results taken from the supplement of paper PMC11741623.
This is one part of the list. Interaction screen of human proteins with wild-type SARS-CoV-2 proteins by split-DHFR complementation in yeast, 1 µg/mL methotrexate. Value = fitness of the pair (three or more lineages) minus that of the viral protein without a human partner, on a scale set by negative (0) and fused positive (1) controls, mean of up to three cultures; higher = more likely to interact. Active = false discovery rate below 0.05 (one-sided t-test) in at least one culture. Nearly all pairs are not hits, and differences among them are mostly noise (correlation between cultures about 0.3); most hits were seen in one culture only. Human sequences are the Swiss-Prot entries looked up by gene name; the clone may be another isoform. NSP2 values were corrected by the authors for a growth advantage. Listed are human proteins with a hit and a random twelfth of the others.

Tests used:
Assay in all cases: yeast fitness gain over the viral ORF with no human partner (scaled fitness); higher = more likely to interact
SARS-CoV-2 E = biological target: SARS-CoV-2 E
Description: (§1)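 Split mouse DHFR complementation in pooled diploid yeast: human ORFeome clones carry one fragment and viral ORFs the other; barcoded lineages compete in 1 µg/mL methotrexate and fitness is read by barcode sequencing in up to three cultures.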

SARS-CoV-2 M = biological target: SARS-CoV-2 M
Description: as §1

SARS-CoV-2 N = biological target: SARS-CoV-2 N
Description: as §1

SARS-CoV-2 NSP1 = biological target: SARS-CoV-2 NSP1
Description: as §1

SARS-CoV-2 NSP10 = biological target: SARS-CoV-2 NSP10
Description: as §1

SARS-CoV-2 NSP12 = biological target: SARS-CoV-2 NSP12
Description: as §1

SARS-CoV-2 NSP13 = biological target: SARS-CoV-2 NSP13
Description: as §1

SARS-CoV-2 NSP14 = biological target: SARS-CoV-2 NSP14
Description: as §1

SARS-CoV-2 NSP15 = biological target: SARS-CoV-2 NSP15
Description: as §1

SARS-CoV-2 NSP16 = biological target: SARS-CoV-2 NSP16
Description: as §1

SARS-CoV-2 NSP2 = biological target: SARS-CoV-2 NSP2
Description: as §1

SARS-CoV-2 NSP4 = biological target: SARS-CoV-2 NSP4
Description: as §1

SARS-CoV-2 NSP5 = biological target: SARS-CoV-2 NSP5
Description: as §1

SARS-CoV-2 NSP6 = biological target: SARS-CoV-2 NSP6
Description: as §1

SARS-CoV-2 NSP7 = biological target: SARS-CoV-2 NSP7
Description: as §1

SARS-CoV-2 NSP8 = biological target: SARS-CoV-2 NSP8
Description: as §1

SARS-CoV-2 NSP9 = biological target: SARS-CoV-2 NSP9
Description: as §1

SARS-CoV-2 ORF10 = biological target: SARS-CoV-2 ORF10
Description: as §1

SARS-CoV-2 ORF3A = biological target: SARS-CoV-2 ORF3A
Description: as §1

SARS-CoV-2 ORF3B = biological target: SARS-CoV-2 ORF3B
Description: as §1

SARS-CoV-2 ORF6 = biological target: SARS-CoV-2 ORF6
Description: as §1

SARS-CoV-2 ORF7A = biological target: SARS-CoV-2 ORF7A
Description: as §1

SARS-CoV-2 ORF7B = biological target: SARS-CoV-2 ORF7B
Description: as §1

SARS-CoV-2 ORF8 = biological target: SARS-CoV-2 ORF8
Description: as §1

SARS-CoV-2 ORF9B = biological target: SARS-CoV-2 ORF9B
Description: as §1

[1] = biological target: SARS-CoV-2 ORF9Bwu (the 73-codon ORF)
Description: as §1

SARS-CoV-2 S = biological target: SARS-CoV-2 S
Description: as §1

Measured: yeast fitness gain

B1: C16orf3, O95177 (protein)
chain: MKLSSAAGQESPGHPHPSPPAWTLKKPSESVAQRAMCSARACPVACPVGCPAACPVGCPIACPVSCPVACPVGCPVGSMATAPQGLSPQEWEADRETGSSSHAGTTQCSIHSPSSSSRHLSRTQT
inactive: SARS-CoV-2 E -0.0596 | SARS-CoV-2 M -0.000473 | SARS-CoV-2 N 0.0398 | SARS-CoV-2 NSP1 = -0.00687 | SARS-CoV-2 NSP10 = 0.00186 | SARS-CoV-2 NSP12 = 0.0101 | SARS-CoV-2 NSP13 = -0.0117 | SARS-CoV-2 NSP14 = -0.0275 | SARS-CoV-2 NSP15 = -0.0163 | SARS-CoV-2 NSP16 = 0.0324 | SARS-CoV-2 NSP2 = -0.14 | SARS-CoV-2 NSP4 = -0.0218 | SARS-CoV-2 NSP5 = -0.0443 | SARS-CoV-2 NSP6 = -0.0828 | SARS-CoV-2 NSP7 = -0.153 | SARS-CoV-2 NSP8 = 0.00468 | SARS-CoV-2 NSP9 = -0.0836 | SARS-CoV-2 ORF10 = 0.0266 | SARS-CoV-2 ORF3A -0.108 | SARS-CoV-2 ORF3B 0.0405 | SARS-CoV-2 ORF6 = 0.0274 | SARS-CoV-2 ORF7A 0.0811 | SARS-CoV-2 ORF7B -0.000328 | SARS-CoV-2 ORF8 = -0.00276 | SARS-CoV-2 ORF9B -0.00111 | [1] 0.000286 | SARS-CoV-2 S 0.0404

B2: CALD1, Q05682 (protein)
chain: MDDFERRRELRRQKREEMRLEAERIAYQRNDDDEEEAARERRRRARQERLRQKQEEESLGQVTDQVEVNAQNSVPDEEAKTTTTNTQVEGDDEAAFLERLARREERRQKRLQEALERQKEFDPTITDASLSLPSRRMQNDTAENETTEKEEKSESRQERYEIEETETVTKSYQKNDWRDAEENKKEDKEKEEEEEEKPKRGSIGENQVEVMVEEKTTESQEETVVMSLKNGQISSEEPKQEEEREQGSDEISHHEKMEEEDKERAEAERARLEAEERERIKAEQDKKIADERARIEAEEKAAAQERERREAEERERMREEEKRAAEERQRIKEEEKRAAEERQRIKEEEKRAAEERQRIKEEEKRAAEERQRARAEEEEKAKVEEQKRNKQLEEKKHAMQETKIKGEKVEQKIEGKWVNEKKAQEDKLQTAVLKKQGEEKGTKVQAKREKLQEDKPTFKKEEIKDEKIKKDKEPKEEVKSFMDRKKGFTEVKSQNGEFMTHKLKHTENTFSRPGGRASVDTKEAEGAPQVEAGKRLEELRRRRGETESEEFEKLKQKQQEAALELEELKKKREERRKVLEEEEQRRKQEEADRKLREEEEKRRLKEEIERRRAEAAEKRQKMPEDGLSDDKKPFKCFTPKGSSLKIEERAEFLNKSVQKSSGVKSTHQAAIVSKIDSRLEQYTSAIEGTKSAKPTKPAASDLPVPAEGVRNIKSMWEKGNVFSSPTAAGTPNKETAGLKVGVSSRINEWLTKTPDGNKSPAPKPSDLRPGDVSSKRNLWEKQSVDKVTSPTKV
active: SARS-CoV-2 NSP2 = 0.183
inactive: SARS-CoV-2 E -0.0189 | SARS-CoV-2 M 0.0178 | SARS-CoV-2 N -0.00631 | SARS-CoV-2 NSP1 = 0.0529 | SARS-CoV-2 NSP10 = -0.036 | SARS-CoV-2 NSP12 = -0.0956 | SARS-CoV-2 NSP13 = -0.000284 | SARS-CoV-2 NSP14 = 0.0907 | SARS-CoV-2 NSP15 = 0.0609 | SARS-CoV-2 NSP16 = 0.0531 | SARS-CoV-2 NSP4 = -0.0174 | SARS-CoV-2 NSP5 = 0.0459 | SARS-CoV-2 NSP6 = -0.174 | SARS-CoV-2 NSP7 = 0.0503 | SARS-CoV-2 NSP8 = 0.0792 | SARS-CoV-2 NSP9 = -0.124 | SARS-CoV-2 ORF10 = 0.0433 | SARS-CoV-2 ORF3A 0.183 | SARS-CoV-2 ORF3B -0.0394 | SARS-CoV-2 ORF6 = 0.00875 | SARS-CoV-2 ORF7A -0.0495 | SARS-CoV-2 ORF7B -0.0488 | SARS-CoV-2 ORF8 = 0.0392 | SARS-CoV-2 ORF9B 0.0738 | [1] -0.0138 | SARS-CoV-2 S 0.12

B3: APOC4, P55056 (protein)
chain: MSLLRNRLQALPALCLCVLVLACIGACQPEAQEGTLSPPPKLKMSRWSLVRGRMKELLETVVNRTRDGWQWFWSPSTFRGFMQTYYDDHLRDLGPLTKAWFLESKDSLLKKTHSLCPRLVCGDKDQG
inactive: SARS-CoV-2 E -0.0179 | SARS-CoV-2 M 0.0152 | SARS-CoV-2 N 0.0325 | SARS-CoV-2 NSP1 = -0.0928 | SARS-CoV-2 NSP10 = -0.0885 | SARS-CoV-2 NSP12 = 0.0396 | SARS-CoV-2 NSP13 = 0.0627 | SARS-CoV-2 NSP14 = 0.0386 | SARS-CoV-2 NSP15 = 0.0155 | SARS-CoV-2 NSP16 = -0.117 | SARS-CoV-2 NSP2 = -0.0656 | SARS-CoV-2 NSP4 = 0.124 | SARS-CoV-2 NSP5 = 0.0261 | SARS-CoV-2 NSP6 = -0.0751 | SARS-CoV-2 NSP7 = 0.0253 | SARS-CoV-2 NSP8 = 0.0544 | SARS-CoV-2 NSP9 = -0.0025 | SARS-CoV-2 ORF10 = 0.0176 | SARS-CoV-2 ORF3A 0.0619 | SARS-CoV-2 ORF3B 0.0524 | SARS-CoV-2 ORF6 = -0.0194 | SARS-CoV-2 ORF7A 0.0165 | SARS-CoV-2 ORF7B 0.0568 | SARS-CoV-2 ORF8 = -0.0352 | SARS-CoV-2 ORF9B -0.0241 | [1] 0.0865 | SARS-CoV-2 S -0.025

B4: ANKRD33, Q7Z3H0 (protein)
chain: MKVQPSVTCVASWGGIVHLEAFGDPVIVLRGAWAVPRVDCLIDTLRTPNASCMRKGTHLLVPCLEEEELALHRRRLDMSEALPCPGKETPTPGCRLGALYWACVHNDPTQLQAILDGGVSPEEATQVDSNGRTGLMVACYHGFQSVVALLSHCPFLDVNQQDKGGDTALMLAAQAGHVPLVSLLLNYYVGLDLERRDQRGLTALMKAAMRNRCADLTAVDPVRGKTALEWAVLTDSFDTVWRIRQLLRRPQVEQLSQHYKPEWPALSGLVAQAQAQAQVAPSLLERLQATLSLPFAPSPQEGGVLDHLVTATTSLASPFVTTACHTLCPDHPPSLGTRSKSVPELLGTAPPPPLVPQSPPGSPQRSPWVFVPYQSPQGILSKCLQWLQPRDSTSPRPQVPKILLSKASSSSHQCQPKPSPSGHQSLALPLWRYQELRIEKRKQEEEARMAQK
inactive: SARS-CoV-2 E -0.0746 | SARS-CoV-2 M 0.0519 | SARS-CoV-2 N 0.0201 | SARS-CoV-2 NSP1 = 0.059 | SARS-CoV-2 NSP10 = -0.0558 | SARS-CoV-2 NSP12 = -0.115 | SARS-CoV-2 NSP13 = 0.0116 | SARS-CoV-2 NSP15 = -0.0833 | SARS-CoV-2 NSP16 = -0.0333 | SARS-CoV-2 NSP2 = -0.0743 | SARS-CoV-2 NSP4 = 0.0168 | SARS-CoV-2 NSP5 = -0.00863 | SARS-CoV-2 NSP6 = 0.0539 | SARS-CoV-2 NSP7 = 0.0115 | SARS-CoV-2 NSP8 = -0.0387 | SARS-CoV-2 NSP9 = 0.154 | SARS-CoV-2 ORF10 = 0.0315 | SARS-CoV-2 ORF3A -0.00609 | SARS-CoV-2 ORF3B 0.0447 | SARS-CoV-2 ORF6 = -0.00267 | SARS-CoV-2 ORF7A 0.0219 | SARS-CoV-2 ORF7B 0.0302 | SARS-CoV-2 ORF8 = -0.00179 | SARS-CoV-2 ORF9B 0.0185 | [1] 0.00431 | SARS-CoV-2 S -0.0519
